From paper PMC4336329 (PLoS ONE, 2015) come the findings set out here.

Screen size: about 310,000 compounds; about 2,200 (0.71%) showed an effect of 50% or more. Effects have a minus sign here. This is one part of the list.

Sequence of human ether-à-go-go-related gene (hERG) potassium channel (Q12809 whole entry, looked up): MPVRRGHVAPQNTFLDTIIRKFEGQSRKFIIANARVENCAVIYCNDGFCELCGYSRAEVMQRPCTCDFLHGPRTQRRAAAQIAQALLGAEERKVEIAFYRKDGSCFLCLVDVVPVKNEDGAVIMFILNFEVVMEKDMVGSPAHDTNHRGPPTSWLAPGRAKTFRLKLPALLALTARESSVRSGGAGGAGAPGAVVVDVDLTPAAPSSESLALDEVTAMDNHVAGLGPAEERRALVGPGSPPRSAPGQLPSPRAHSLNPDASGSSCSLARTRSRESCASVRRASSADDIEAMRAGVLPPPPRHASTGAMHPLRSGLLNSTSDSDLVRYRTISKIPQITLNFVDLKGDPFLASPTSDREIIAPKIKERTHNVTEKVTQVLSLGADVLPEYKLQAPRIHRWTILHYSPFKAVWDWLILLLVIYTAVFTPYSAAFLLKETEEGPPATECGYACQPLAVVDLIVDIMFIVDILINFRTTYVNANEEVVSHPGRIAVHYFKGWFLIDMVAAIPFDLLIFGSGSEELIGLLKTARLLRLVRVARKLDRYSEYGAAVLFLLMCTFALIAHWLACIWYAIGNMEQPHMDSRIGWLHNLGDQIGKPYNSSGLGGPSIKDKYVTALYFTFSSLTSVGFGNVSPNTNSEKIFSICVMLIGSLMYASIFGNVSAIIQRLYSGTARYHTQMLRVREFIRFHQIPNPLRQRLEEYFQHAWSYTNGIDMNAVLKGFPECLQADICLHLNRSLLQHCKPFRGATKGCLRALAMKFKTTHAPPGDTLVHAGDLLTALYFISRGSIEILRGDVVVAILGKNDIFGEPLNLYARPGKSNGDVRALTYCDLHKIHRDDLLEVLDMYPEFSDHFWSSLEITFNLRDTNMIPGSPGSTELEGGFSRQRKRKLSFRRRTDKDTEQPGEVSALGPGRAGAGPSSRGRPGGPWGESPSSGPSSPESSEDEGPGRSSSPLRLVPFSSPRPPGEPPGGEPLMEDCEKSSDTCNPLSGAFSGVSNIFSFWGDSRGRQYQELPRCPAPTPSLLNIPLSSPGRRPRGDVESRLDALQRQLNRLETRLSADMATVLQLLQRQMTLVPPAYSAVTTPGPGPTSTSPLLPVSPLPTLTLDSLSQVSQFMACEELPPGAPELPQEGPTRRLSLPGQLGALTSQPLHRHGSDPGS

The experiment concerns the target human ether-à-go-go-related gene (hERG) potassium channel (human, UniProt Q12809). The experiment in a line: primary screen, population patch clamp on CHO cells stably expressing hERG.
Regarding `COC(=O)c1cc(CSc2ncnc3sccc23)oc1C`, the “hERG current change (%, negative = inhibition) at 1uM” value was determined as 7.03%. The value for `CC(Oc1ccc(F)cc1)C(=O)Nc1ccccc1C(=O)NC1CC1` (stereo not drawn) was 0.331%; that for `CNCC(C)COc1ccccc1OCc1ccccc1.O=C(O)/C=C\C(=O)O` (stereo not drawn) was -0.183%; that for `Cc1ccccc1-c1cc(-c2ccccc2O)on1` was 6.66%. The value for `NC(=O)[C@@H]1CCCN1Cc1nc(-c2ccccc2)no1` was 6.67%; that for `N#C/C(=C\c1cn[nH]c1-c1ccccc1)C(=O)NC1CCCCCC1` was 6.75%. With `CCCc1nc2sc3c(=O)n(N)cnc3c2c2c1CCCC2` the figure was 10.9%; with `Cc1[nH]n(-c2ccccc2)c(=O)c1N=Nc1c(Cl)cccc1Cl`, 13.7%. Regarding `CCn1cc(C(=O)NCc2ccc3c(c2)OCO3)c(=O)c2cc(S(=O)(=O)N3CCOCC3)ccc21`, the “hERG current change (%, negative = inhibition) at 1uM” value is given as 0.795%. The value for `CCOC(=O)NC(NCc1ccccc1Cl)(C(F)(F)F)C(F)(F)F` was 11.1%; that for `CCNc1c(NC(=O)c2ccc3c(c2)OCO3)c(=O)oc2ccccc12` was 15%.

On to `CCOC(=O)Nc1ccc(S(=O)(=O)N2CCC(C)CC2)cc1`, for which the “hERG current change (%, negative = inhibition) at 1uM” value came to 5.78%.

`CCC(C)(C)NC(=O)C1c2ccccc2Oc2ccccc21`: the “hERG current change (%, negative = inhibition) at 1uM” value is recorded as 16.1%. The value for `CCN(CC)C(=O)c1ccc(Cn2cc([N+](=O)[O-])cn2)o1` was 3.35%; that for `CC(=O)Nc1ccc(C2C(=O)c3ccccc3C2=O)cc1` was 16.4%. The value for `COc1cccc(-c2nc(COc3ccc(Cl)cc3Cl)no2)c1` was 13.2%. With `O=C(c1cccc(Cl)c1)N1CCC2(CC1)NCCc1[nH]cnc12` the figure was 19.8%; with `O=C(CSc1ncnc2sc3c(c12)CCCC3)c1ccco1`, 4.23%; with `CCn1c(=S)sc2nc(C)sc21`, 14.4%.

As for `CCC(=O)N1CCCc2cc(S(=O)(=O)N3CCN(C4CCCCC4)CC3)ccc21`, the “hERG current change (%, negative = inhibition) at 1uM” value is listed as 4.18%. The value for `C/C(=C\c1ccco1)CN1CCC(N2CCC(C(=O)N3CCOCC3)CC2)CC1` was -23.3%.

Regarding `Cc1ccccc1NC(=O)Cn1nc(-c2ccccc2)nc1-c1ccccc1`, the “hERG current change (%, negative = inhibition) at 1uM” value is reported as -0.709%. With `CC(=O)c1cccc(S(=O)(=O)N(CCCO)Cc2cc3ccc(C)cc3[nH]c2=O)c1` the figure was 2.37%; with `CC(Sc1nc(-c2ccccc2)cc(C(F)(F)F)n1)C(=O)Nc1sc2c(c1C(N)=O)CCC2` (stereo not drawn), 13.6%; with `COc1ccc(/C=N/NC(=O)CNC(=O)c2ccc(S(=O)(=O)N3CCOCC3)cc2)c(OC)c1`, -1.11%.

For `Cc1cc(C)c(S(=O)(=O)c2ccccc2C)c(OCCN(C)C)n1`, the “hERG current change (%, negative = inhibition) at 1uM” value is given as 6.5%. With `C/C=C(\C)C(=O)NCCN1C2=NC[C@@H](C)N2C[C@H]1Cc1ccc(O)cc1` the figure was 9.7%. The value for `O=C(/C=C/c1ccco1)N1CCN(C/C=C/c2ccccc2)CC1` was -9.04%; that for `Cc1ccccc1N(CC(=O)NCCSCc1ccccc1)S(C)(=O)=O` was 6.37%; that for `O=C(c1ccc2c(=O)n(Cc3ccccc3Cl)c(=S)[nH]c2c1)N1CCOCC1` was 13%. With `CCN(Cc1nc2cc(Cl)ccc2c(=O)[nH]1)C(=O)c1cccc(OCc2c(C)noc2C)c1` the figure was 0.812%. Take `COc1ccc(OC)c(C2NC(=O)CCC2[N+](=O)[O-])c1` (stereo not drawn): the “hERG current change (%, negative = inhibition) at 1uM” value is 10.9%. The value for `Cc1nc(-c2ccccn2)nc(SCC(=O)N2CCOCC2)c1Cl` was 10.7%; that for `O=C(N/N=C/c1c[nH]c2ccc(Br)cc12)c1ccc2c(c1)OCO2` was 19.5%; that for `Cc1cc(/C=N\NC(=O)CC(=O)NC2CCCCC2)c(C)n1-c1cccc(Cl)c1Cl` was -1.34%. As for `COCC1CCCN(C(=O)c2ccc3nc(Cc4cccc(Cl)c4)oc3c2)C1` (stereo not drawn), the “hERG current change (%, negative = inhibition) at 1uM” value was found to be 9.38%. Regarding `CCc1nnc(NS(=O)(=O)c2ccc(NC(=O)c3cc(Cl)ccc3[N+](=O)[O-])cc2)s1`, the “hERG current change (%, negative = inhibition) at 1uM” value is recorded as 13.4%. For `CS(=O)(=O)Nc1cccc(C2=NN(C(=O)CCCC(=O)O)C(c3cccs3)C2)c1` (stereo not drawn), the “hERG current change (%, negative = inhibition) at 1uM” value is recorded as 7.78%.

As for `CNc1oc(C)nc1S(=O)(=O)c1ccc(C)cc1`, the “hERG current change (%, negative = inhibition) at 1uM” value was 11.2%. The value for `COc1ccccc1NS(=O)(=O)c1ccc2nc(CCl)[nH]c2c1` was 16.3%; that for `Clc1ccc(Nc2ncnc3c2nnn3Cc2ccccc2)cc1` was 7.39%; that for `C/C(=N\NC(=O)c1ccc(Cn2cc(Br)cn2)o1)c1cccc(NC(=O)C(C)C)c1` was -6.97%. With `COc1ccc2occ(C(=O)c3ccc(N)cc3)c2c1` the figure was 6.26%. For the compound `Cc1cccc(-n2nc(C(=O)Nc3ccccc3)n3c(=O)cc(-c4ccccc4)nc23)c1`, the “hERG current change (%, negative = inhibition) at 1uM” value came out at 7.7%. Take `CC(=O)Oc1ccc(-c2ccc(C(=O)Nc3cccc(S(=O)(=O)N4CCOCC4)c3)cc2)cc1`: the “hERG current change (%, negative = inhibition) at 1uM” value turned out to be 18.2%. With `Cc1cc(C)cc(C(=O)OCC(=O)NCCNC(=O)COC(=O)c2cc(C)cc(C)c2)c1` the figure was 13.8%; with `COC(=O)CN1C(=O)C(C)(C)Oc2ccc(C(=O)Nc3ccccc3F)cc21`, 13.4%. With `COc1ccc(NC(=O)Cn2c(=O)n(-c3ccccc3)c(=O)c3oc4ccccc4c32)c(OC)c1` the figure was 6.57%. The value for `CCC(=O)Nc1sc(C(=O)Nc2ccccc2OC)c(C)c1C(=O)OC` was 10.2%.

Regarding `CCOC(=O)c1ccccc1NC(=O)Cn1c(-c2nonc2N)nc2ccccc21`, the “hERG current change (%, negative = inhibition) at 1uM” value is listed as 8.83%. The value for `O=C(NC(C1CC1)C1CC1)C1CCC(=O)N(CCCN2CCCC2=O)C1` (stereo not drawn) was 5.64%.

For the compound `OCCN(Cc1ccccc1)Cc1ccc(F)c(F)c1`, the “hERG current change (%, negative = inhibition) at 1uM” value is recorded as 1.31%. In the case of `CN(C)c1ccc(-c2nnc(-c3ccccc3F)o2)cc1`, the “hERG current change (%, negative = inhibition) at 1uM” value was 3.55%.

For `COc1ccccc1N(C)S(=O)(=O)c1ccc(C(=O)OCC(=O)N2CCC2)cc1`, the “hERG current change (%, negative = inhibition) at 1uM” value is 11.4%. As to `O=C(c1ccccc1)N1CCN(c2n[nH]c(=O)[nH]c2=O)CC1`, the “hERG current change (%, negative = inhibition) at 1uM” value came out at 5.03%. Take `COc1ccc(-n2ncc3c(N4CCCCC4)ncnc32)cc1`: the “hERG current change (%, negative = inhibition) at 1uM” value was determined as 4.93%. `CCN(CC)C(=O)CSc1nnc(-c2ccc(S(=O)(=O)NCc3ccccc3Cl)cc2)o1`: the “hERG current change (%, negative = inhibition) at 1uM” value was -2.35%. With `O=C(NCC[C@@H]1C[C@@H]2C=C[C@H]1C2)c1cc(COc2ccc(F)cc2F)on1` the figure was 11.1%. The value for `O=C(c1ccc(N2CN(C(=O)c3ccco3)c3nc4ccccc4nc32)cc1)N1CCOCC1` was -1.09%; that for `O=C(CCSc1ccccc1)Nc1nc2c(s1)COc1ccccc1-2` was 10%; that for `O=C(O)/C=C/c1ccc(S(=O)(=O)N(CCO)CCO)cc1` was 11.8%.

`O=S(=O)([O-])CCC[n+]1ccc(Oc2ccccc2)cc1`: the “hERG current change (%, negative = inhibition) at 1uM” value is reported as 11.2%. On to `Cc1cc(C(=O)Nc2ccccc2N2CCOCC2)no1`, for which the “hERG current change (%, negative = inhibition) at 1uM” value is on record as 2.61%. Take `COc1cc(/C=N/NC(=O)c2cccc(NC(=O)c3ccccc3)c2)ccc1O`: the “hERG current change (%, negative = inhibition) at 1uM” value was 4.96%.

Consider `Cc1c(CN2CCC(CO)(CCOc3ccccc3)CC2)[nH]c2c(Cl)cccc12`, for which the “hERG current change (%, negative = inhibition) at 1uM” value is listed as -8.68%. In the case of `Cc1ccc(-c2[nH]ncc2C(=O)c2cccc(F)c2)c(O)c1`, the “hERG current change (%, negative = inhibition) at 1uM” value turned out to be 5.93%. The value for `Cl.Fc1cccc(Nc2c3c(nc4ccccc24)CCC3)c1` was -9.35%; that for `Cc1ccc(-c2nn(-c3ccccc3)cc2C(=O)Nc2ccc(C)c(S(=O)(=O)N3CCOCC3)c2)cc1` was 10.3%; that for `CC(C)CC(=O)NC(c1cccs1)c1ccc2cccnc2c1O` (stereo not drawn) was 3.79%. The value for `Cc1cc(C)n(S(=O)(=O)c2ccc(F)cc2)n1` was 3.03%; that for `Cc1nc(N2CCOCC2)nc(Oc2ccccc2F)c1[N+](=O)[O-]` was -1.98%. For the compound `Cc1ccc(-c2nc(-c3ccccc3)no2)cc1`, the “hERG current change (%, negative = inhibition) at 1uM” value is 10.4%. Take `CCN1CCN(Cc2c(C)[nH]c3ccc(C(=O)OC)cc3c2=O)CC1`: the “hERG current change (%, negative = inhibition) at 1uM” value is -1.21%. With `Fc1ccccc1N1CCN(Cc2cc(-c3ccccc3)on2)CC1` the figure was 13.3%; with `CC1CCCC(C)N1C(=O)COC(=O)CNC(=O)c1ccccc1` (stereo not drawn), 8.52%. The value for `CC(OC(=O)Cc1c[nH]c2ccccc12)C(=O)NC1(C#N)CCCCC1` (stereo not drawn) was 23.4%; that for `COc1ccc(CC(=O)Nc2cccc(S(=O)(=O)N3CCCCC3)c2)cc1` was 5.47%; that for `C=CCNCCCOc1ccc(Cl)cc1C(C)(C)C.O=C(O)C(=O)O` was -20%. With `COc1ccc(N2CCN(C(=O)c3cc4c(-c5cccc(OC)c5)nn(C)c4s3)CC2)cc1` the figure was 14.5%.

Take `COc1cc(OC)cc(C(=O)NC(=S)Nc2ccc3[nH]c(=O)[nH]c3c2)c1`: the “hERG current change (%, negative = inhibition) at 1uM” value came to 10.2%.

In the case of `CCNC(=O)Oc1ccc(-c2csnn2)cc1`, the “hERG current change (%, negative = inhibition) at 1uM” value is 7.42%.

Consider `Cc1cccc(C(C#N)c2ccc(Cl)nn2)c1` (stereo not drawn), for which the “hERG current change (%, negative = inhibition) at 1uM” value is given as 8.57%. With `COc1ccc(C(=O)NCCCNC(=O)c2cnccn2)cc1` the figure was 5.29%. With `CCOC(=O)c1cc(-c2csc(COc3ccc(Cl)cc3)n2)on1` the figure was 10.4%; with `COc1ccc(/C=N/Nc2ncnc3scc(-c4ccccc4)c23)cc1OC`, 10.4%. With `CC1=NNC(=O)C1C(c1ccccc1)C1C(=O)NN=C1C.O=C(O)C(=O)O` (stereo not drawn) the figure was 5.86%; with `Cc1c(Cl)cccc1NC(=S)NCc1ccccc1`, 10.8%.
